# In all, about 4,100 sequences were measured (“relative CpG methylation activity (normalised to average over all NNNCGNNN flanks)”: median about 0.87, highest 2% from about 2.4 on). Some of the results follow.
# Target: DNMT3A catalytic domain (mouse) (UniProt O88508)
# Test: relative CpG methylation activity (normalised to average over all NNNCGNNN flanks) (relative (1 = mean)); higher = more methylation of the central CpG
# Conditions: system: in vitro, murine catalytic domain; CpG state: hemimethylated substrate pool; residues: 608-908
# Summary of the method: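 For Illumina sequencing, DNA was processed by proteinase K, BsaI-HFv2 digestion, hairpin ligation, bisulfite conversion and two-step PCR after methylation by murine DNMT3A or DNMT3B catalytic domain. The methylation reaction contained 0.8 mM S-adenosyl-L-methionine in HEPES pH 7.5 buffer and ran at 37 °C for 60 min on pooled dsDNA substrates with a central CpG inside 10 random flanking nucleotides. Relative methylation activity was computed as the average methylation of each flanking context divided by the mean over all contexts. Contexts covered three flanking bases per side, and there were two independent repeats per experiment.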
row,Sequence,relative CpG methylation activity
1,ACACGCGG,0.619
2,GTTCGTCT,1.3
3,GATCGGAC,0.714
4,CAGCGAAA,0.433
5,TTGCGAAG,0.913
6,AGACGCGC,0.92
7,AGGCGGTA,0.747
8,CTTCGGGG,0.814
9,AATCGCAA,0.347
10,TAACGTCT,0.904
11,GTTCGCTC,2.37
12,TCACGCGG,0.58
13,CCCCGTCT,1.73
14,ACGCGAAC,1.34
15,TGACGGCT,0.691
16,TGCCGCAA,0.807
17,CCCCGACA,1.53
18,CTTCGTGT,0.494
19,GGACGCGC,1.04
20,CGCCGATG,0.72
21,GTACGGAC,1.51
22,AGACGACC,1.16
23,AACCGCGC,1.02
24,TGGCGATT,0.23
25,CCTCGTGT,0.297

row,Sequence,relative CpG methylation activity
1,GACCGCTT,1.77
2,GGACGCGT,0.512
3,GGTCGTAC,0.216
4,GAGCGTGG,0.025
5,CTCCGTGG,0.317
6,CTGCGGCT,1.17
7,GATCGTAA,0.261
8,ACACGTGA,0.98
9,AAACGAGG,0.267
10,CCACGATT,1.04
11,AATCGCGG,0.0311
12,CATCGTCA,1.31
13,CAACGATG,0.349
14,GGTCGCCC,1.2
15,GTTCGATG,0.33
16,CACCGAGC,1.49
17,AGACGTGG,0.278
18,CCACGCTG,1.58
19,ATCCGTGA,0.909
20,ATGCGTGG,0.6
21,GTACGCTC,2.72
22,GATCGCCG,0.545
23,TGCCGCTG,0.973
24,GTCCGCTC,2.37
25,GAGCGGCA,0.7

row,Sequence,relative CpG methylation activity
1,TTGCGTGT,0.625
2,GTCCGAGG,1.65
3,AAGCGTTA,0.556
4,CCTCGTCT,1.57
5,CCCCGGAA,0.846
6,CCACGCCC,2.16
7,AGACGGGA,0.662
8,AACCGCTT,1.45
9,ATTCGCTG,0.992
10,GACCGCGC,1.18
11,AAGCGGAC,0.95
12,CCACGCTC,2.5
13,TCACGACT,1.17
14,TCACGCAA,1.5
15,GGTCGATC,0.632
16,CAACGCAC,1.23
17,CGCCGGAT,0.394
18,GCACGGTT,0.984
19,CTACGCTA,2.5
20,CCCCGAAT,1.07
21,AAACGACC,0.698
22,GTCCGATA,1.37
23,TGTCGCAA,0.848
24,CCCCGGTA,0.943
25,GTTCGCCT,1.92

row,Sequence,relative CpG methylation activity
1,CTCCGTTA,1.51
2,AGGCGGGG,0.025
3,CTGCGTCG,1.59
4,AAGCGCAG,0.376
5,TGCCGTTG,0.17
6,GAACGATT,0.613
7,CATCGAGG,0.36
8,TATCGCAC,0.93
9,CATCGGGG,0.133
10,CTTCGCTG,1.12
11,GACCGGAT,0.523
12,TTGCGGGC,1.62
13,GTGCGTCG,1.91
14,TTGCGGGA,1.03
15,TCCCGGTG,0.536
16,TTCCGATG,1.46
17,ACCCGTGC,0.638
18,TTTCGCAG,1.23
19,ACGCGACG,0.979
20,TAACGCTC,1.57
21,CGTCGCTA,0.737
22,TGCCGTAA,0.797
23,ATTCGGCT,0.663
24,TAACGGTC,1.06
25,TCTCGGTT,0.988

row,Sequence,relative CpG methylation activity
1,TCACGGCG,0.789
2,GGCCGTTC,0.777
3,TAACGCCC,1.61
4,GCTCGCGG,0.549
5,GGTCGTCT,0.726
6,CAGCGACC,0.599
7,CTGCGATC,1.42
8,TATCGGAG,0.197
9,CGTCGCCC,1.9
10,AAGCGATG,0.369
11,AGCCGACA,1.02
12,GACCGGTT,1.08
13,TTTCGACT,0.743
14,TCACGTGG,0.364
15,CCGCGCCT,2.07
16,CAGCGGTT,0.25
17,GGACGAAA,0.717
18,AAGCGCCG,1.19
19,GCCCGATT,1.01
20,GACCGTTT,0.619
21,CTTCGGAA,1.15
22,AGTCGGTT,0.368
23,TAACGCTT,1.53
24,TAGCGAGC,0.625
25,CTTCGCCT,2.27

row,Sequence,relative CpG methylation activity
1,GGACGCAT,0.571
2,AGACGAAC,1.11
3,ATCCGGGA,0.766
4,CGGCGCTA,0.829
5,GGTCGGAA,0.575
6,ATACGGCG,1.65
7,TCTCGACT,0.991
8,GATCGTTA,0.186
9,GTCCGTCG,2.53
10,CGCCGCTT,1.55
11,GAGCGTGT,0.238
12,ATGCGGCC,1.64
13,ACACGGCT,1.69
14,TCCCGGCA,1.1
15,GGGCGAGG,0.806
16,TATCGGGT,0.5
17,TCCCGACT,1.14
18,CCGCGCTG,1.07
19,GACCGGAA,0.936
20,TGTCGGAA,0.614
21,GATCGCCA,0.923
22,ACCCGTCT,1.74
23,ATGCGCAC,1.77
24,CTTCGACA,1.22
25,GCCCGGGC,1.04

row,Sequence,relative CpG methylation activity
1,TATCGCGT,0.597
2,TAACGTCG,1.31
3,TCTCGCCA,1.59
4,TTTCGTAT,1.15
5,GAACGCTG,0.497
6,TACCGGCT,0.827
7,TTACGCGG,0.654
8,CAACGGTC,1.03
9,ACACGTAC,1.71
10,GGGCGTCC,1.45
11,CTACGTCC,2.8
12,GGCCGAGA,0.644
13,GTTCGTTA,1.37
14,AATCGTAT,0.211
15,GACCGGCA,0.909
16,ACACGGGT,1.06
17,GATCGCAG,0.248
18,ACACGCCC,2.4
19,AATCGGCC,0.419
20,AGGCGTAA,0.665
21,ACTCGGCT,1.23
22,AGACGTCA,1.03
23,AATCGTGT,0.201
24,ATGCGACA,1.23
25,GGCCGGCC,0.968

row,Sequence,relative CpG methylation activity
1,CCACGGCA,1.62
2,TGACGTAT,0.326
3,GGGCGGGG,0.227
4,AGCCGTTG,0.402
5,CACCGAAA,1.16
6,ACCCGACG,1.17
7,GCTCGTGA,0.694
8,CCTCGGTC,1.02
9,CTTCGTCG,1.71
10,GCTCGGCG,0.833
11,ACTCGTAG,0.496
12,AGCCGATC,1.11
13,TGCCGAGA,0.951
14,GACCGACG,0.672
15,GGCCGGGC,0.75
16,TTACGCTA,1.94
17,CTCCGTGA,0.887
18,CATCGTGC,0.26
19,AACCGTCG,1.34
20,GAGCGGGA,0.397
21,TGTCGCTA,1.02
22,TGCCGTAG,0.376
23,GCACGCGA,1.28
24,AGTCGGGT,0.417
25,GCGCGAGC,1.43

row,Sequence,relative CpG methylation activity
1,GTGCGGGG,0.161
2,CCGCGGAT,0.894
3,GCCCGGAG,0.506
4,GCCCGGCT,1.16
5,CGACGATA,0.488
6,AGACGAAG,0.459
7,ATTCGTAT,0.724
8,TTCCGGCC,1.99
9,CGCCGCTG,0.894
10,TGTCGCTC,1.44
11,CACCGCGG,0.261
12,TTCCGTGG,0.603
13,CCGCGTGC,0.476
14,AGTCGTCT,0.604
15,AGTCGCGA,0.305
16,TTACGCTG,1.74
17,TGCCGGGA,0.714
18,CAGCGCCG,0.976
19,TTGCGATC,2.29
20,GGGCGATC,1.48
21,ATCCGGTG,0.96
22,TGTCGCGG,0.189
23,AAGCGCTT,1.28
24,CGACGTTA,0.702
25,ACTCGAAA,1.12

row,Sequence,relative CpG methylation activity
1,CCACGTCT,1.61
2,GAGCGGAT,0.465
3,TCCCGAAA,1.21
4,AATCGCCA,0.81
5,GTACGCCA,2.14
6,TTCCGGTG,1.5
7,TAGCGGCA,0.714
8,TATCGGGA,0.248
9,GCGCGAAG,0.42
10,TTGCGGAA,1.22
11,ACCCGCTT,1.82
12,CCTCGTTG,0.606
13,GCCCGAGA,1.08
14,TGCCGTCA,1.1
15,GGACGAAC,1.36
16,CGGCGGGG,0.263
17,GATCGGTC,0.604
18,CTGCGCAC,1.56
19,CAACGGTT,0.815
20,TGGCGGCG,0.784
21,AATCGATT,0.376
22,CTGCGTAC,1.64
23,ACACGTGC,0.945
24,CAACGGTA,0.845
25,TATCGTAA,1.11

row,Sequence,relative CpG methylation activity
1,CACCGCAC,1.11
2,CGCCGAGT,0.664
3,ACGCGGTA,0.802
4,GAACGCTA,0.855
5,CTACGGTC,1.92
6,TTGCGCAG,0.966
7,GTACGGAA,1.75
8,GTACGGTT,1.45
9,CTTCGCGA,1.31
10,CAGCGCTC,1.08
11,AGCCGGCC,0.556
12,GGTCGAGA,0.379
13,TCCCGTTG,0.752
14,AATCGTCC,0.837
15,GCCCGGAA,0.896
16,CCTCGGGT,0.941
17,AAACGGAC,0.891
18,TTCCGTGT,0.462
19,CCTCGCAC,1.77
20,TCTCGACC,1.16
21,ACACGACA,1.69
22,AGCCGGCG,0.532
23,AAACGCTC,1.44
24,CTTCGGAC,1.26
25,TTTCGGGT,0.729

row,Sequence,relative CpG methylation activity
1,AGGCGTTC,0.467
2,ATTCGAGC,1.1
3,CCACGATC,1.52
4,ACGCGTTT,0.798
5,TGCCGAAA,0.797
6,TTACGAGA,1.93
7,TGTCGAAA,0.438
8,GGTCGCTT,1.03
9,TTCCGGTA,2
10,CGGCGTGT,0.143
11,TATCGTGC,0.586
12,CCCCGCGT,1.11
13,ACACGTCT,1.97
14,AAACGAGC,0.959
15,GCTCGTTA,0.56
16,AGACGTAG,0.32
17,GGCCGCCG,1.34
18,AAACGATC,0.829
19,CTCCGATC,2.41
20,GAGCGCGT,0.586
21,GCTCGACT,0.868
22,TAACGTGC,0.399
23,CTACGGCG,1.56
24,ATTCGAGA,0.916
25,GCCCGAAC,1.48

row,Sequence,relative CpG methylation activity
1,CGTCGATT,0.461
2,TCGCGGGC,0.632
3,ATACGCGA,1.33
4,GGGCGGGC,0.364
5,TAACGAGC,1.14
6,CTACGTGA,1.2
7,TAACGACT,0.585
8,CTTCGTAT,1.06
9,TTTCGTGA,0.781
10,AGCCGAGT,1.02
11,GCGCGCAA,1.14
12,GGTCGGAT,0.139
13,CGCCGTCC,1.42
14,AGTCGTGA,0.125
15,AAACGCAG,0.29
16,CAGCGTTT,0.267
17,CTCCGCCA,2.37
18,ACACGCTG,1.74
19,CCTCGATG,0.455
20,CCCCGCGA,0.961
21,CGACGCTT,1.38
22,TAGCGTCT,0.714
23,CCACGCGC,1.71
24,TTACGACG,1.53
25,TGTCGGCT,0.492

row,Sequence,relative CpG methylation activity
1,GTCCGTTC,1.47
2,CTACGATG,1.2
3,AACCGGAC,0.719
4,GAACGTCT,1.31
5,GGCCGAAT,0.346
6,AATCGAGG,0.352
7,TCCCGTCA,1.49
8,GAACGACC,0.912
9,GCTCGAAG,0.538
10,ATCCGTTG,0.462
11,ATACGATA,1.71
12,TCACGAAG,0.777
13,CGACGTGT,0.11
14,CTCCGACA,1.71
15,GCGCGTAC,0.719
16,AAACGGGA,0.59
17,TGCCGGCA,0.798
18,CAGCGCGA,0.301
19,ACCCGTAG,0.643
